According to patent US20220073646A1 (Hoffmann-La Roche, published 2022):

Molecular target: human 4-1BB on cells (human, UniProt Q07011 24-255)
Assay: cell-based or functional assay

B1: 4-1BB(11D5)/FAP(4B9) 2+1 (bispecific antibody, human IgG1, kappa)
heavy 1: QVQLVQSGAEVKKPGSSVKVSCKASGGTFSSYAISWVRQAPGQGLEWMGGIIPIFGTANYAQKFQGRVTITADKSTSTAYMELSSLRSEDTAVYYCARSTLIYGYFDYWGQGTTVTVSSASTKGPSVFPLAPSSKSTSGGTAALGCLVKDYFPEPVTVSWNSGALTSGVHTFPAVLQSSGLYSLSSVVTVPSSSLGTQTYICNVNHKPSNTKVDKKV[human IgG1 Fc with changes left out]GGGGSGGGGSGGGGSGGGGSEVQLLESGGGLVQPGGSLRLSCAASGFTFSSYAMSWVRQAPGKGLEWVSAIIGSGASTYYADSVKGRFTISRDNSKNTLYLQMNSLRAEDTAVYYCAKGWFGGFNYWGQGTLVTVSS
heavy 2: QVQLVQSGAEVKKPGSSVKVSCKASGGTFSSYAISWVRQAPGQGLEWMGGIIPIFGTANYAQKFQGRVTITADKSTSTAYMELSSLRSEDTAVYYCARSTLIYGYFDYWGQGTTVTVSSASTKGPSVFPLAPSSKSTSGGTAALGCLVKDYFPEPVTVSWNSGALTSGVHTFPAVLQSSGLYSLSSVVTVPSSSLGTQTYICNVNHKPSNTKVDKKVEPKSCDKTHTCPPCPAPEAAGGPSVFLFPPKPKDTLMISRTPEVTCVVVDVSHEDPEVKFNWYVDGVEVHNAKTKPREEQYNSTYRVVSVLTVLHQDWLNGKEYKCKVSNKALGAPIEKTISKAKGQPREPQVCTLPPSRDELTKNQVSLSCAVKGFYPSDIAVEWESNGQPENNYKTTPPVLDSDGSFFLVSKLTVDKSRWQQGNVFSCSVMHEALHNHYTQKSLSLSPGGGGGSGGGGSGGGGSGGGGSEIVLTQSPGTLSLSPGERATLSCRASQSVTSSYLAWYQQKPGQAPRLLINVGSRRATGIPDRFSGSGSGTDFTLTISRLEPEDFAVYYCQQGIMLPPTFGQGTKVEIK
light: [about 100 residues left out][about 120 residues left out]
For B1, which “EC50 of NFκB/luciferase activation, 4-1BB reporter HeLa with NIH/3T3-huFAP clone 19” value is on record?
Its value is 0.3 nM.

What about the “EC50 of NFκB/luciferase activation, 4-1BB reporter HeLa with WM-266-4” value of the same binder?
Its value is 0.4 nM.

B2: 4-1BB(11D5)/FAP(4B9) 4+1 (bispecific antibody, human IgG1, kappa)
heavy 1: QVQLVQSGAEVKKPGSSVKVSCKASGGTFSSYAISWVRQAPGQGLEWMGGIIPIFGTANYAQKFQGRVTITADKSTSTAYMELSSLRSEDTAVYYCARSTLIYGYFDYWGQGTTVTVSSASTKGPSVFPLAPSSKSTSGGTAALGCLVKDYFPEPVTVSWNSGALTSGVHTFPAVLQSSGLYSLSSVVTVPSSSLGTQTYICNVNHKPSNTKVDKKVEPKSCDGGGGSGGGGSQVQLVQSGAEVKKPGSSVKVSCKASGGTFSSYAISWVRQAPGQGLEWMGGIIPIFGTANYAQKFQGRVTITADKSTSTAYMELSSLRSEDTAVYYCARSTLIYGYFDYWGQGTTVTVSSASTKGPSVFPLAPSSKSTSGGTAALGCLVKDYFPEPVTVSWNSGALTSGVHTFPAVLQSSGLYSLSSVVTVPSSSLGTQTYICNVNHKPSNTKVDKKV[human IgG1 Fc with changes left out]GGGGSGGGGSGGGGSGGGGSEIVLTQSPGTLSLSPGERATLSCRASQSVTSSYLAWYQQKPGQAPRLLINVGSRRATGIPDRFSGSGSGTDFTLTISRLEPEDFAVYYCQQGIMLPPTFGQGTKVEIK
heavy 2: QVQLVQSGAEVKKPGSSVKVSCKASGGTFSSYAISWVRQAPGQGLEWMGGIIPIFGTANYAQKFQGRVTITADKSTSTAYMELSSLRSEDTAVYYCARSTLIYGYFDYWGQGTTVTVSSASTKGPSVFPLAPSSKSTSGGTAALGCLVKDYFPEPVTVSWNSGALTSGVHTFPAVLQSSGLYSLSSVVTVPSSSLGTQTYICNVNHKPSNTKVDKKVEPKSCDGGGGSGGGGSQVQLVQSGAEVKKPGSSVKVSCKASGGTFSSYAISWVRQAPGQGLEWMGGIIPIFGTANYAQKFQGRVTITADKSTSTAYMELSSLRSEDTAVYYCARSTLIYGYFDYWGQGTTVTVSSASTKGPSVFPLAPSSKSTSGGTAALGCLVKDYFPEPVTVSWNSGALTSGVHTFPAVLQSSGLYSLSSVVTVPSSSLGTQTYICNVNHKPSNTKVDKKVEPKSCDKTHTCPPCPAPEAAGGPSVFLFPPKPKDTLMISRTPEVTCVVVDVSHEDPEVKFNWYVDGVEVHNAKTKPREEQYNSTYRVVSVLTVLHQDWLNGKEYKCKVSNKALGAPIEKTISKAKGQPREPQVCTLPPSRDELTKNQVSLSCAVKGFYPSDIAVEWESNGQPENNYKTTPPVLDSDGSFFLVSKLTVDKSRWQQGNVFSCSVMHEALHNHYTQKSLSLSPGGGGGSGGGGSGGGGSGGGGSEVQLLESGGGLVQPGGSLRLSCAASGFTFSSYAMSWVRQAPGKGLEWVSAIIGSGASTYYADSVKGRFTISRDNSKNTLYLQMNSLRAEDTAVYYCAKGWFGGFNYWGQGTLVTVSS
light: [about 100 residues left out][about 120 residues left out]
What does the source list for B2?
EC50 of NFκB/luciferase activation, 4-1BB reporter HeLa with NIH/3T3-huFAP clone 19: 0.06 nM; EC50 of NFκB/luciferase activation, 4-1BB reporter HeLa with WM-266-4: 0.1 nM
